Here are results for 61 compounds from PubChem BioAssay AID1347434 (National Center for Advancing Translational Sciences (NCATS), 2020).

About 30 (2%) of roughly 1,200 compounds were called active. Not shown: some 23% with an inconclusive outcome. Calls come from the whole dose curve; as a rule, active = well fitted inhibition curve with a large enough effect; inconclusive = small, poorly fitted or top-dose-only effect; inactive = flat fitted curve, though single readings scatter. The list shows a part of the results.
% is set by controls: 0 for no effect and ±100 for the full control effect; potency is the fitted concentration of half-maximal effect.

In this assay the target is Single-stranded DNA cytosine deaminase (Homo sapiens) (UniProt Q9GZX7). Kind of assay: Confirmatory qHTS assay for inhibitors of Activation Induced Cytidine Deaminase (AID): AID signals. The settings on record: recombinant AID, FRET deamination/UDG coupled fluorescence, 4 h; series mostly up to 115 µM; activity, negative = inhibition: at the top concentration. The essentials: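 Read 1 (AID) was measured at 540 ex/590 em after a 30 min NaOH step. The reaction was AID (1 uM, 4/3x stock) with UDG, compound at final 7.32 nM - 114 uM for 10 min, then DJC20/DJC23 substrate for 4 hr at room temperature. A UDG read at 560/665 serves as counterscreen.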
Sequence of UniProt Q9GZX7 (Q9GZX7 whole entry, looked up): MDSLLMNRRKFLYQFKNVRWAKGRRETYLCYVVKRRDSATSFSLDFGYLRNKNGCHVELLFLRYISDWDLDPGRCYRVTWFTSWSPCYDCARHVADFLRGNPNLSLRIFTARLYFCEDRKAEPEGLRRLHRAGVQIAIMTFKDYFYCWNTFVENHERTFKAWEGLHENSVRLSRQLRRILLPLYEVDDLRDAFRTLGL
On to `CN(C)c1ccc(Nc2ncnc3sc4c(c23)CCCC4)cc1`, for which the “activity, negative = inhibition” value is inactive: -1.26%.
As to `Cc1ccc(C)c(CSc2nnc(C)n3c2cc2sccc23)c1`, the “activity, negative = inhibition” value was inactive: -16.7%.
As to `Cc1ccc(C)c(N2CCN(CCCNC(=O)c3cnn(-c4ccc(F)cc4)c3C3CCN(C(=O)OC(C)(C)C)CC3)CC2)c1`, the “activity, negative = inhibition” value is inactive: -1.81%.
Consider `OCC1O[C@H]([S-])[C@H](O)[C@@H](O)[C@@H]1O.[Au+]` (stereo partly specified), for which the Potency was active: 12.6 µM.
Consider `CC(C)NC[C@H](O)c1ccc(O)c(O)c1`, for which the “activity, negative = inhibition” value is inactive: 8.25%.
As to `CCOC(=O)c1cccc(NC(=O)c2oc3c(c2C)-c2nn(CC)cc2CC3)c1`, the “activity, negative = inhibition” value is inactive: 12.5%.
As to `Cc1c(Cl)cccc1-n1ncc(C(=O)NC2CCCCC2)c1C1CCN(C(=O)OC(C)(C)C)CC1`, the “activity, negative = inhibition” value is inactive: -0.422%.
Take `COc1ccc(OC)c(Nc2sc(C(=O)c3ccccc3)c(N)c2S(=O)(=O)c2ccccc2)c1`: the “activity, negative = inhibition” value was inactive: -2.04%.
As to `CCN(CC)CCNC(=O)c1ccc2c(=O)n3nc(Nc4ccccc4OC)sc3nc2c1`, the “activity, negative = inhibition” value was inactive: -25.4%.
Consider `Cc1ccc(CN(Cc2ccco2)C(=O)c2ccc(OCC(C)C)cc2)cc1`, for which the “activity, negative = inhibition” value was inactive: -7.47%.
Take `Cc1ccc(S(=O)(=O)Cc2ccc(C(=O)N3CCN(c4cccc(Cl)c4)CC3)o2)cc1`: the “activity, negative = inhibition” value is inactive: -16.7%.
The same measure, in the same setting: the same measure for `CCOC(=O)c1cnc2c(ccc3ccccc32)c1Nc1ccc(N(C)C)cc1`: inactive: -12.4%.
Still for that read-out and setting: as for `CCn1cc2c(n1)-c1c(oc(C(=O)Nc3ccc(Br)cc3F)c1C)CC2`, the figure is inactive: -12.3%; as for `Cc1ccc(N(CC(=O)N2CCN(c3cc(C)ccc3C)CC2)S(=O)(=O)c2c(C)nn(C)c2C)cc1`, inactive: -24.2%; as for `CCOc1ccc(CNC(=O)c2oc3c(c2C)-c2nn(Cc4cccc(Cl)c4)cc2CC3)cc1`, inactive: 1.55%.
For `O=C(c1ccc2c(c1)N(Cc1ccc(Cl)cc1)C(=O)c1ccccc1S2(=O)=O)N1CCCC1`, the “activity, negative = inhibition” value was inactive: -6.84%.
As for `Cc1ccc(N(C)C(=O)c2sc3nc4n(c(=O)c3c2C)CCCC4)cc1C`, the “activity, negative = inhibition” value is inactive: -29.1%.
Take `CCCCN(CC)C(=O)CSc1nc2n[nH]c(C)c2c(=N)n1-c1ccc(CC)cc1`: the “activity, negative = inhibition” value was inactive: 9.27%.
On to `COc1ccc(CNC(=O)Nc2ccc3c(c2)N(C)C(=O)c2ccccc2S3)cc1OC`, for which the “activity, negative = inhibition” value was inactive: -18.8%.
With `CC(=O)c1cccc(NC(=O)CC(c2ccc(C)cc2)N2Cc3ccccc3C2=O)c1` (stereo unspecified), the “activity, negative = inhibition” value is inactive: -3.19%.
Consider `CCn1cc2c(n1)-c1c(oc(C(=O)Nc3cccc(C)c3C)c1C)CC2`, for which the “activity, negative = inhibition” value was inactive: 27.1%.
For `CCc1ccc(N(CC)C(=O)c2sc3nc4n(c(=O)c3c2C)CCCC4)cc1`, the “activity, negative = inhibition” value is inactive: -22.2%.
On the same count and under the same terms, as for `COc1ccc(Nc2ncc(C(=O)N3CCN(c4ccccc4OC)CC3)c3ccccc23)cc1`, the figure is inactive: -3.41%.
Same read-out and setting: as for `Cc1ccc(CSc2cn(CCNC(=O)c3cccs3)c3ccccc23)cc1`, the figure is inactive: 24%; as for `Cc1nc2nc(SCC(=O)NC3CCC(C)CC3)nn2c(C)c1Cc1ccccc1Cl` (stereo unspecified), inactive: -16.5%; as for `CCC(NC(C)C)C(O)c1ccc(O)c(O)c1` (stereo unspecified), inactive: 9.38%.
With `Cc1cccc(-c2nnc(SCC(=O)N3CCCc4ccccc43)o2)c1`, the “activity, negative = inhibition” value was inactive: -23.7%.
With `CC(=O)c1ccc(C(=O)N(Cc2cccnc2)c2nc3c(Cl)cccc3s2)cc1`, the “activity, negative = inhibition” value was inactive: -9.63%.
The same measure, in the same setting: the same measure for `O=C(c1cccc(Cl)c1)N(Cc1ccco1)Cc1ccccc1Cl`: inactive: -11%; for `O=C(NCCn1cc(SCc2cccc(F)c2)c2ccccc21)c1cccc(C(F)(F)F)c1`: inactive: 2.49%.
Consider `Cc1ccc(N(Cc2cccs2)C(=O)c2ccccc2)cc1`, for which the “activity, negative = inhibition” value is inactive: -16.4%.
As to `O=C(O)c1ccc(Nc2nc(-c3ccccc3)c3cc(Br)ccc3n2)cc1`, the “activity, negative = inhibition” value was inactive: -28.7%.
Take `COc1ccc(-c2nc3ccccc3n2Cc2ccc(C(C)C)cc2)cc1`: the “activity, negative = inhibition” value is inactive: -14.1%.
Take `Cc1ccc(Cl)cc1N1CCN(C(=O)c2cccn2-c2nnc(N3CCCCC3)s2)CC1`: the “activity, negative = inhibition” value was inactive: -17.3%.
As for `COc1ccc(NC(=O)C(c2ccc(C)cc2)N(C)C(=O)Cc2cccs2)cc1` (stereo unspecified), the “activity, negative = inhibition” value is inactive: -16%.
In the case of `CC(C)c1ccc(S(=O)(=O)c2cnc(SCC(=O)Nc3cccc(C(F)(F)F)c3)nc2N)cc1`, the “activity, negative = inhibition” value was inactive: -5.26%.
The same measure, in the same setting: as for `Cc1cccc(Cn2c(SCc3ccc(C(=O)N4CCC(C)CC4)cc3)nc3ccncc32)c1`, the figure is inactive: -29.7%; as for `CCOc1ccc(-c2nn(-c3ccccc3)cc2C2NC(=O)NC(C)=C2C(=O)OC(C)C)cc1C` (stereo unspecified), inactive: -12.4%.
In the case of `COc1cccc(CNC(=O)c2oc3ccc4c(c3c2C)C(=O)CC(C)(C)O4)c1OC`, the “activity, negative = inhibition” value is inactive: -14%.
On the same count and under the same terms, as for `COc1cccc(CNC(=O)c2ccc3c(Cl)c4c(nc3c2)CCCC4)c1`, the figure is inactive: -15.9%; as for `CCC1CCCCN1C(=O)CSc1nc(-c2ccc(OC)cc2)cc(C(F)(F)F)n1` (stereo unspecified), inactive: -15.6%; as for `CCOc1ccc(NC(=O)CSc2nccn2-c2cccc(C)c2C)cc1`, inactive: -11.4%.
Same read-out and setting: as for `Cc1ccc(Nc2nnc(-c3ccc(C)c(S(=O)(=O)N4CCN(C)CC4)c3)c3ccccc23)c(C)c1`, the figure is inactive: -19.7%; as for `CCc1ccc(NC(=O)CSc2nccn2-c2cccc(C)c2C)cc1`, inactive: -8.49%.
Turning to `Cc1ccccc1OCc1ccc(-c2nc(C#N)c(N3CCN(C)CC3)o2)o1`, the “activity, negative = inhibition” value was inactive: -9.73%.
Consider `O=C(Cc1ccc(F)cc1)N1CCC(c2nc3c(nnn3Cc3ccc(F)cc3)c(=O)[nH]2)CC1`, for which the “activity, negative = inhibition” value is inactive: -14.4%.
Regarding `CCn1cc2nc(SCc3ccc(C)cc3)n(CCc3ccccc3)c(=O)c2n1`, the “activity, negative = inhibition” value was inactive: -8.74%.
Consider `COc1cc2c(=O)c(S(=O)(=O)c3ccc(C)cc3)cn(Cc3cccc(C)c3)c2cc1OC`, for which the “activity, negative = inhibition” value was inactive: -8.12%.
On to `COc1ccc(C(=O)/C=C/c2cn(CC(O)CN(CC(C)C)CC(C)C)c3ccccc23)cc1` (stereo unspecified), for which the “activity, negative = inhibition” value is inactive: -10.7%.
Take `CC(NC(=O)c1nn(C)c2c1CSc1ccccc1-2)c1ccccc1` (stereo unspecified): the “activity, negative = inhibition” value is inactive: -3.81%.
As to `O=C(c1cnc2cc(-c3ccccc3)nn2c1)c1cc([N+](=O)[O-])ccc1O`, the “activity, negative = inhibition” value is inactive: -29.5%.
Still for that read-out and setting: as for `COc1ccc(CCNC(=O)c2cc(Nc3cc(C)cc(C)c3)nc3ccccc23)cc1OC`, the figure is inactive: -13.5%; as for `CCCCOc1ccc(C(=O)N2CCC(c3nc4ccccc4o3)CC2)cc1`, inactive: -18.9%.
`CCOC(=O)C1=C(C)NC(=O)NC1c1cn(-c2ccccc2)nc1-c1ccc(OC(C)C)cc1` (stereo unspecified): the “activity, negative = inhibition” value was inactive: -1.47%.
For the compound `O=C(CSc1nc(-c2cccs2)nc2cc(=O)[nH]n12)Nc1cccc(C(F)(F)F)c1`, the “activity, negative = inhibition” value is inactive: 1.5%.
`CCCOc1ccc(-c2nn(-c3ccccc3)cc2C2NC(=O)NC(C)=C2C(=O)OC)cc1` (stereo unspecified): the “activity, negative = inhibition” value was inactive: -9.67%.
Regarding `CCCCOc1ccc(C(=O)Nc2ccc(S(=O)(=O)Nc3nc(C)cc(C)n3)cc2)cc1`, the “activity, negative = inhibition” value is inactive: 3.2%.
Take `CCCCOc1ccc(C(=O)N2CC(=O)Nc3ccc(Br)cc3C2c2ccc(F)cc2)cc1` (stereo unspecified): the “activity, negative = inhibition” value is inactive: -9.47%.
For the compound `COc1ccc(-c2cn3cccnc3n2)cc1NC(=O)Nc1cc(C)ccc1C`, the “activity, negative = inhibition” value was inactive: -13.7%.
Regarding `Cc1ccc(Cl)cc1N1CCN(C(=O)c2cc3ccc4cccnc4c3[nH]2)CC1`, the “activity, negative = inhibition” value was inactive: -16.7%.
On to `COc1ccccc1C(=O)NCCn1cc(SCC(=O)Nc2ccccc2F)c2ccccc21`, for which the “activity, negative = inhibition” value was inactive: 4.48%.
